Here are results for one molecule from patent US20250000946A1 (WUXI BIOLOGICS IRELAND, published 2025).

Where two headings read alike, the source gives them in different places.

As usually defined, the EC50 is the concentration giving half of the maximal effect. Low readings indicate higher potency in that assay, high ones lower potency in that assay. What is called Kd is the constant that tells how readily two partners part at equilibrium. High values mean a looser complex, low ones a tighter complex.

Assay [1] has as its target T1, Human IL-2Rβ/γ (intermediate affinity IL-2 receptor) (human, UniProt P14784 27-551; P31785 23-369).
T1 construct: whole, on cells; also called IL-2Rβ/γc; IL-2Rβ (CD122) and γ (CD132)
T1 sequence (looked up) 1: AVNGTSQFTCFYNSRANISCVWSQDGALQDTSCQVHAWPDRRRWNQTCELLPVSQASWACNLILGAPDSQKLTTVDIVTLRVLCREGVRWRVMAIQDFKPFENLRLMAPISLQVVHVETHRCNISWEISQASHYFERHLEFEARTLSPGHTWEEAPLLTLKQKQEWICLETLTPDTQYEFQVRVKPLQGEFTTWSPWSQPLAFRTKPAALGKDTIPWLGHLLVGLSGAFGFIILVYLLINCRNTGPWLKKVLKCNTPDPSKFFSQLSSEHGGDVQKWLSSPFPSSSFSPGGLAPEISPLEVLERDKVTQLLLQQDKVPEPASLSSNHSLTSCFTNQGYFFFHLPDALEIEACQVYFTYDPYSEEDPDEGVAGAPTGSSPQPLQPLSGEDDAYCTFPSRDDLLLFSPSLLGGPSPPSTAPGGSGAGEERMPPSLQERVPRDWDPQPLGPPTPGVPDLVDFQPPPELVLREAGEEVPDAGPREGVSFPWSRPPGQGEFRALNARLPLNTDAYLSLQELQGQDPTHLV
T1 sequence (looked up) 2: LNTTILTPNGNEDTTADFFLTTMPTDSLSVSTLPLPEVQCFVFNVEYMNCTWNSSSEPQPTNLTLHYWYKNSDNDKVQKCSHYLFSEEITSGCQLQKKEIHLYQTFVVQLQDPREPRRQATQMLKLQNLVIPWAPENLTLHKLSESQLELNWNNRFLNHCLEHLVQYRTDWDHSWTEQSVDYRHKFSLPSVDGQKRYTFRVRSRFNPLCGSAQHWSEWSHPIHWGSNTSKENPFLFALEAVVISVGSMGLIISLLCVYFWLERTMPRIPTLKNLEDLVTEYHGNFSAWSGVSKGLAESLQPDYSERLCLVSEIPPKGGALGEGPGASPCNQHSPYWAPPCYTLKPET
The assay can be described thus: FACS, HH cells. The procedure: (§1) Human cutaneous T cell lymphoma HH cells, malignant non-Hodgkin's lymphoma NK92 cells and cutaneous T cell lymphoma MJ20 cells were used for binding assay. They both constitutively express IL-2Rβ (CD122) and […] (CD132), and NK92 and MJ20 also expresses IL-2Rα (CD25). HH, NK92 and MJ20 cells were cultured following ATCC guidance, then transferred to a 96-plate for binding analysis. Cells were incubated with IL-2/Fc fusion proteins at the indicated concentrations for 30 min at 4° C. to avoid internalization. Binding was detected by 2nd antibody of PE-anti-human Fc at 4° C. for another 30 min. The median fluorescence intensity (MFI) on HH and NK92 cells was measured using FACS.
IL-2 variants of T2U0.E44-6 and T2U0.E44-26 were used to construct bivalent variants W3XX115-T2.Z20-1.uIgG4V322 and W3XX115-T2.Z20-2.uIgG4V322 respectively.
(In general: Flow cytometry measures light scatter and fluorescence of single cells or particles in a stream.)

The target in assay [2] is T2, Human IL-2Rα/β/γ complex (high affinity IL-2 receptor) (human, UniProt P01589 22-272; P14784 27-551; P31785 23-369).
T2 construct: whole, on cells
T2 sequence (looked up) 1: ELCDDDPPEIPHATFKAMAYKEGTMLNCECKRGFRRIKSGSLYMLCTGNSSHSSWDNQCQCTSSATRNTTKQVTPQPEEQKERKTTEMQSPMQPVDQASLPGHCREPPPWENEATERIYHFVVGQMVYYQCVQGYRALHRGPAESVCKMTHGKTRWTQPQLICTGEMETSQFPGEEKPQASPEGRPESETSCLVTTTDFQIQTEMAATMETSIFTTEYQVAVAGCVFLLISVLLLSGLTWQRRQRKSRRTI
T2 sequence (looked up) 2: T1 sequence (looked up) 1
T2 sequence (looked up) 3: T1 sequence (looked up) 2
The assay can be described thus: FACS, MJ20 cells. How it is done:
as §1

For assay [3], the target named is T2, Human IL-2Rα/β/γ complex (high affinity …). Nature of the assay: FACS, MJ20 cells; EC50 fold vs T2U0.E44-1. How it is done:
as §1
Affinity of IL-2 variants to IL-2Rα/β/γ supported the same results (FIG. 8 and Table 7). […] And T2U0.E44-26, T2U0.E44-27, T2U0.E44-29 and T2U0.E44-30 induced hundreds to thousands affinity reduction in Treg compared to T2U0.E44-1. Binding curves in MJ20 cells (IL-2Rα/β/γ) also achieved similar trend (FIG. 8b). As a result, the method of C-terminal truncation and substitution of 129 was available to achieve IL-2Rβγ attenuated IL-2 variants.

The target is the same in assay [4]. Nature of the assay: FACS, MJ20 cells; EC50 fold vs T2U0.E44-1. The procedure: as §1
This is another data set of the same source.

The target in assay [5] is T3, W369-hPro1.ECD.His, IL-2Rγ ECD (human, UniProt P31785 23-254).
T3 construct: Entry includes linker and C-terminal 6xHis tag; also called IL-2Rγc; CD132
T3 sequence: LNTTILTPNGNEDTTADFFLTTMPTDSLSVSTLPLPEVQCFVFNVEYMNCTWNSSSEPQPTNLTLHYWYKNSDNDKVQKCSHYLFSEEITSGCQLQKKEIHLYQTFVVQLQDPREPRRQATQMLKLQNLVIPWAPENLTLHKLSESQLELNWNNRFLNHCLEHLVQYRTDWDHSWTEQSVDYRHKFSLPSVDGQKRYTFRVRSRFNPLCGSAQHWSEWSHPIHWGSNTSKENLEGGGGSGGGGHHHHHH
Nature of the assay: SPR Biacore 8K; variant pre-mixed 1:1 with IL-2Rβ ECD-His, injected over captured IL-2Rγ ECD-His; steady state. How it is done:
IL-2 variants binding affinity to IL-2 receptor were detected by SPR using Biacore 8K. For IL-2Rα binding assay, each variant was captured on anti-human Fc immobilized CM5 sensor chip (cytiva). W3XX115-hPro1.ECD.His at different concentrations were injected over the sensor chip at a flow rate of 30 uL/min for an association phase of 60 s, followed by 90 s dissociation. The chip was then regenerated by 10 mM Glycine-HCl pH1.5 after each binding cycle. For IL-2Rγ binding assay, IL-2 variants were mixed with W369-hPro2.ECD.His as 1:1 before assay, were detected by SPR using Biacore 8K. W3XX115-hPro1.ECD.His was captured on anti-His immobilized CM5 sensor chip (cytiva). The mixture were injected over the sensor chip as described above. The sensorgrams of blank surface and buffer channel were subtracted from the test sensorgrams. The experimental data was fitted by steady state affinity model. Molecular weight of W3XX115-hPro1.ECD.His or W369-hPro1.ECD.His was used to calculate the molar concentration of analyte.
(SPR reads the build-up and loss of mass on a sensor chip optically.)

B1: W3XX115-T2U0.E44-1.uIgG4V322 (Fc fusion)
chain: [no letters for about 150 residues]ESKYGPPCPPCPAPEAAGGPSVFLFPPKPKDTLMISRTPEVTCVVVDVSQEDPEVQFNWYVDGVEVHNAKTKPREEQFNSTYRVVSVLTVLHQDWLNGKEYKCKVSNKGLPSSIEKTISKAKGQPREPQVYTLPPCQEEMTKNQVSLWCLVKGFYPSDIAVEWESNGQPENNYKTTPPVLDSDGSFFLYSRLTVDKSRWQEGNVFSCSVMHEALHNHYTQKSLSLSLG
heavy: EIQLQQSGPELVKPGASVKVSCKASGYSFTDYNMYWVKQSHGESLEWIGYIDPYNGGTRYNQKFKGKATLTVDKSSSTAFMHLNSLTSEDSAVYYCARNGHWDGAWFAYWGQGTLVTVSAASTKGPSVFPLAPCSRSTSESTAALGCLVKDYFPEPVTVSWNSGALTSGVHTFPAVLQSSGLYSLSSVVTVPSSSLGTKTYTCNVDHKPSNTKVDKRVESKYGPPCPPCPAPEAAGGPSVFLFPPKPKDTLMISRTPEVTCVVVDVSQEDPEVQFNWYVDGVEVHNAKTKPREEQFNSTYRVVSVLTVLHQDWLNGKEYKCKVSNKGLPSSIEKTISKAKGQPREPQVCTLPPSQEEMTKNQVSLSCAVKGFYPSDIAVEWESNGQPENNYKTTPPVLDSDGSFFLVSRLTVDKSRWQEGNVFSCSVMHEALHNHYTQKSLSLSLG
light: DIQMNQSPSSLSASLGDTITITCHASQNINVWLSWYQQKPGNIPKLLIYKASNLHTGVPSRFSGSRSGTGFTLTISSLQPEDIATYYCHQGQSYPFTFGSGTKLEIKRTVAAPSVFIFPPSDEQLKSGTASVVCLLNNFYPREAKVQWKVDNALQSGNSQESVTEQDSKDSTYSLSSTLTLSKADYEKHKVYACEVTHQGLSSPVTKSFNRGEC
notes: WT IL-2, no linker, IgG4 Fc with FALA, one Fab arm (E44 format); also called T20.E44-1; wild-type IL-2
Take B1: the EC50 is 31.6 nM in assay [1] and 41.9 nM in assay [2]. The Affinity reduction in assay [3] and in assay [4] was 1 fold in each case. In assay [5], the Kd was determined as 1790 nM.
